Reference: US20250236878A1 (priority 2019, published 2025)

Assays:
[1] = test system: soybean varieties AG2733, AG3931, P21a28x, P40a47x
[2] = test system: corn plants (hybrids DKC 60-88 RIB, DKC 58-08 RIB and DKC 64-35 RIB)
[3] = test system: soybean plants (varieties AG35X7, AG41X8, AG27X7 and AG30X6)

Substance | Average Bu/Ac Increase compared to Control ([1]; foliar spray at R2, 11 sites, vs untreated control) | Average Total Yield Bu/Ac (11 sites) ([1]; foliar spray at R2, Bt.4Q7Flg22 4.0 Fl. oz/Ac, Osmoprotectant 3.2 Fl. oz/Ac, untreated control = 65.16) | Average Bu/Ac Increase compared to Control ([2]; foliar spray V4-V7, 12 locations, vs surfactant control) | Average Total Yield Bu/Ac (12 locations) ([2]; foliar spray V4-V7, Bt.4Q7Flg22 4.0 Fl. oz/Ac, ACC Deaminase 8.0 Fl. oz/Ac, surfactant control = 225.51) | Average Bu/Ac Increase compared to Control ([3]; foliar spray V3-V6, 14 locations, vs surfactant control) | Average Total Yield Bu/Ac (14 locations) ([3]; foliar spray V3-V6, Bt.4Q7Flg22 4.0 Fl. oz/Ac, Osmoprotectant 3.2 Fl. oz/Ac, surfactant control = 64.69)
Bt.4Q7Flg22 (SEQ ID NO: 226) (Row Crop Composition 1) (DRLSSGKRINSASDDAAGLAIA; listed as Bacillus thuringiensis) | +1.44 Bu/Ac | 66.60 Bu/Ac | – | – | – | –
Bt.4Q7Flg22 (SEQ ID NO: 226) (Composition 1) (DRLSSGKRINSASDDAAGLAIA; listed as Bacillus thuringiensis) | – | – | +4.37 Bu/Ac | 229.88 Bu/Ac | +0.29 Bu/Ac | 64.97 Bu/Ac
